Test results published in PubChem BioAssay AID894 (National Center for Advancing Translational Sciences (NCATS), 2007).
Several values for one entry are separate records, joined by “and”; a condition that tells them apart may be missing. Identical values can stand only once. The campaign covered roughly 150,000 compounds. About 6,500 (4.3%) were called active. Inconclusive results, whose numbers are uncertain, are shown with a selection of clear calls. Calls come from the whole dose curve; as a rule, active = well fitted inhibition curve with a large enough effect (not every such curve was filed as active); inconclusive = small, poorly fitted or top-dose-only effect, or another doubt; inactive = no such curve, though single readings can be large or run the other way. Potencies of inconclusive entries are doubtful fits and often do not repeat. A structure can be active in one record and inactive in another.

target: 15-hydroxyprostaglandin dehydrogenase [NAD(+)] (Homo sapiens) (UniProt P15428); experiment: qHTS Assay for Inhibitors of HPGD (15-Hydroxyprostaglandin Dehydrogenase); details: purified HPGD, NADH fluorescence kinetic, PGE2 substrate; activity change, negative = inhibition: hits give low values
In short: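 20 nM HPGD preincubated 15 min at room temperature with compound in 50 mM Tris-HCl pH 8, 0.01% Tween 20. Started with 1 mM NAD+ and 30 uM prostaglandin E2; NADH fluorescence (360/450 nm) read 5 times over 30-s intervals, last minus first.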
% is set by controls: 0 for no effect and ±100 for the full control effect; potency is the fitted concentration of half-maximal effect; tags give direction and shape of the fitted curve.

Chain of UniProt P15428 (P15428 whole entry, looked up): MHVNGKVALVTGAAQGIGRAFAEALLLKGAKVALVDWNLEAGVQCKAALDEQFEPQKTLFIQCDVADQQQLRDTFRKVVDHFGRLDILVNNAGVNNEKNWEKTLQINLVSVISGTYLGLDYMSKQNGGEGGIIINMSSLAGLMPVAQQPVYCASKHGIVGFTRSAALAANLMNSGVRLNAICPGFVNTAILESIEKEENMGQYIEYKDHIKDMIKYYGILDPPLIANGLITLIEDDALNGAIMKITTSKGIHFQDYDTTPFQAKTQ

Row | SMILES | activity change, negative = inhibition | Potency
1 | O=C(O)C1CCCCC1C(=O)Nc1ccccc1F (stereo unspecified) | inactive: -4.82% | 
2 | Cc1ccccc1-c1nc(CN2CCC(C(=O)O)CC2)c(C)o1 | inactive: -0.18% | 
3 | Cc1ccc(/C=C/C(=O)OCC(=O)Nc2ccccc2Sc2ccccc2)cc1 |  | inconclusive: 15.8 µM [inhibitor, partial curve]
4 | COc1ccccc1/C=C1/SC(=O)N(CCC(=O)Nc2ccc(S(=O)(=O)Nc3nccs3)cc2)C1=O | inactive: -16.7% | 
5 | CCC(=O)N(CCc1ccccc1C)Cc1cc2cc3c(cc2[nH]c1=O)OCO3 |  | inconclusive: 31.6 µM [inhibitor, partial curve]
6 | CC1Cc2ccccc2N1C(=O)Cn1c(=O)oc2cc(S(=O)(=O)NC3CCCC3)ccc21 (stereo unspecified) |  | active: 12.6 µM
7 | Cc1cc(=O)oc2ccc(OC(=O)c3cccc(S(=O)(=O)N4CCOCC4)c3)cc12 |  | inconclusive: 39.8 µM [inhibitor, partial curve]
8 | CN(Cc1ccc(-n2cccn2)cc1)C(=O)c1cnn2c1NC(c1ccco1)CC2C(F)(F)F (stereo unspecified) | inactive: -26.3% | 
9 | CCCCCC1CC(CC(=O)O)C(=O)O1 (stereo unspecified) | inactive: -8.86% | 
10 | Nc1nc(CSc2n[nH]c(-c3ccccc3)n2)nc(Nc2ccccc2)n1 |  | active: 12.6 µM
11 | O=c1c2c(nc3cc(-c4ccc(F)cc4)[nH]n13)CCC2 |  | inconclusive: 14.1 µM [inhibitor, partial curve]
12 | O=C(O)CCN1CCOCC1 | inactive: -5.75% | 
13 | O=S(=O)(Nc1ccc(N2CCCCC2)cc1)c1cccs1 |  | active: 25.1 µM
14 | COc1ccc(-c2nc(-c3cccs3)c(-c3cccs3)[nH]2)cc1O |  | inconclusive: 31.6 µM [inhibitor, partial curve]
15 | CN(c1ccccc1)S(=O)(=O)c1cccc(NC(=O)Cc2c(F)cccc2Cl)c1 | inactive: -8.06% | 
16 | Cc1cc2cc(NC(=O)c3ccco3)ccc2[nH]1 |  | inconclusive: 35.5 µM [inhibitor, single point]
17 | O=c1/c(=C/c2ccco2)sc2nc(-c3ccccc3Br)nn12 |  | inconclusive: 39.8 µM [inhibitor, partial curve, poor fit]
18 | CCCCCCNC(=O)c1ccc(Br)o1 |  | inconclusive: 31.6 µM [inhibitor, single point] and inconclusive: 39.8 µM [inhibitor, partial curve]
19 | COC(=O)c1[nH]c2ccc(C)cc2c1NC(=O)CN1CCN(C(=O)c2ccccc2)CC1 |  | inconclusive: 20 µM [inhibitor, partial curve]
20 | CC(C)CC1CC(=O)OC1(C)C(=O)CSc1nc2ccccc2s1 (stereo unspecified) | inactive: -17.1% | 
21 | COc1ccccc1[C@@H]1C(c2ccc(F)cc2)=NN(c2ccccc2)[C@H]1C(=O)N1CCOC1=O |  | inconclusive: 14.1 µM [inhibitor, partial curve] and inconclusive: 31.6 µM [inhibitor, partial curve]
22 | Cc1cc(C(F)(F)F)c2c(C)nn(CCc3nn[nH]n3)c2n1 |  | inconclusive: 10 µM [inhibitor, partial curve]
23 | COc1ccc(NC(=O)N2CC(C)OC(C)C2)cc1OC (stereo unspecified) | inactive: -11.4% | 
24 | CCOC(=O)c1cc(-c2cccc(C(F)(F)F)c2)nc2nc(SC)[nH]c(=O)c12 |  | inconclusive: 14.1 µM [inhibitor, partial curve]

Row | SMILES | activity change, negative = inhibition | Potency
25 | O=C1CCC(=O)N1c1nc2nc(-c3ccccc3)cc(-c3ccccc3)n2n1 |  | inconclusive: 28.2 µM [inhibitor, partial curve]
26 | COc1ccc(CN(Cc2cc3cc(C)ccc3[nH]c2=O)C(=O)N(C)C)cc1 |  | inconclusive: 15.8 µM [inhibitor, partial curve, poor fit]
27 | COC(=O)c1oc2ccc(Br)cc2c1NC(=O)c1ccccc1 |  | inconclusive: 28.2 µM [inhibitor, partial curve]
28 | COc1ccc(OC)c(/C=C2\S/C(=N/NC(=O)c3ccc4ccccc4c3)NC2=O)c1 |  | active: 3.98 µM
29 | [S-]C(=Nc1ccc(Cl)cc1)N[n+]1ccccc1 |  | active: 6.31 µM
30 | COc1cc(/C=C(\C#N)C(=O)NC2CCCCC2C)ccc1OS(=O)(=O)c1ccc(C)cc1 (stereo unspecified) |  | inconclusive: 20 µM [inhibitor, single point]
31 | CCc1cc(Br)ccc1N1C(=O)C2CC=CCC2C1=O (stereo unspecified) |  | inconclusive: 20 µM [inhibitor, partial curve]
32 | O=C(O)c1cc(N2C(=O)C3CC=CCC3C2=O)ccc1NCc1cccnc1 (stereo unspecified) |  | inconclusive: 31.6 µM [inhibitor, partial curve]
33 | C[C@H](CO)NC(=O)[C@H]1C[C@@H]1[C@H](NP(=O)(c1ccccc1)c1ccccc1)c1ccccc1 | inactive: -7.28% | 
34 | CCCCCC(=O)N/N=C/c1ccc(N(C)C)cc1 |  | inconclusive: 15.8 µM [inhibitor, partial curve]
35 | CCCNC(=O)c1ccc(C2SCC(=O)N2CCc2ccccc2)cc1 (stereo unspecified) |  | active: 12.6 µM
36 | CC(=O)OCCCNc1cc(Sc2nc3ccccc3s2)c2nonc2c1[N+](=O)[O-] |  | active: 2.51 µM
37 | CC(C)C(NS(=O)(=O)c1cccs1)C(=O)N(C)Cc1ccccc1 (stereo unspecified) | inactive: 1.2% | 
38 | O=C(NC(=S)Nc1ccc(N2CCCCC2)cc1)c1cccs1 |  | active: 31.6 µM
39 | O=C(NC1CCCCC1)C(c1ccc2ncccc2c1)N(Cc1ccccc1)C(=O)c1cccs1 (stereo unspecified) | inactive: -5.48% | 
40 | COC(=O)CN1C(=O)C(O)(CC(=O)c2ccc(Cl)cc2)c2ccccc21 (stereo unspecified) | inactive: -10.1% | 
41 | COc1ccc(-c2c3c(=O)n(C)c(=O)n(C)c3cn2-c2cc(OC)ccc2OC)cc1 |  | inconclusive: 31.6 µM [inhibitor, partial curve]
42 | FC(F)Oc1ccc(/C=N/c2c(-c3ccc(OC(F)F)cc3)nc3n2CCS3)cc1 |  | inconclusive: 31.6 µM [inhibitor, single point]
43 | COc1ccccc1C(=O)Nc1cc2cc(Cl)ccc2oc1=O |  | inconclusive: 25.1 µM [inhibitor, partial curve]
44 | Cc1ccc(-n2c(SCC3CCCCO3)nnc2-c2ccco2)cc1 (stereo unspecified) |  | active: 15.8 µM
45 | c1ccc2c(c1)oc1c(NCCN3CCOCC3)ncnc12 | inactive: -5.05% | 
46 | CC(C)C(C(=O)Nc1ccc(S(=O)(=O)N2CCOCC2)cc1)N1C(=O)c2ccccc2C1=O (stereo unspecified) |  | inconclusive: 4.47 µM [inhibitor, partial curve]
47 | Cc1[nH]n(-c2ccc(Cl)cc2)c(=O)c1/C=N/c1nnc(-c2ccccc2)s1 |  | active: 28.2 µM
48 | CCn1c2ccccc2c2cc(NC(=O)COc3ccccc3)ccc21 |  | inconclusive: 17.8 µM [inhibitor, partial curve]

Row | SMILES | activity change, negative = inhibition | Potency
49 | COc1ccc(/C=C/C(=O)Nc2ccccc2C(=O)O)cc1OC |  | active: 14.1 µM
50 | CC1Cn2c(nc3sc4c(c3c2=O)CCC4)N1CCO (stereo unspecified) |  | inconclusive: 31.6 µM [inhibitor, partial curve]
51 | COc1ccc(NC(=O)c2ccc(CN3CCN(c4ccccc4)CC3)cc2)cc1OC |  | inconclusive: 31.6 µM [inhibitor, partial curve]
52 | O=C(Nc1ccc(S(=O)(=O)Nc2nccs2)cc1)c1cc(-c2ccccc2Cl)nc2ccccc12 |  | inconclusive: 25.1 µM [inhibitor, single point]
53 | O=Cc1ccccc1OCCOc1ccccc1C=O |  | inconclusive: 39.8 µM [inhibitor, partial curve]
54 | Cc1ccc(OCC(=O)Nc2ccc(F)cc2)cc1C |  | inconclusive: 22.4 µM [inhibitor, single point]
55 | COc1ccc2nc(SCc3ccccc3C)nc(C)c2c1 |  | inconclusive: 28.2 µM [inhibitor, partial curve]
56 | COc1ccc(/C=C/C(=O)NC2CCCCCC2)cc1S(=O)(=O)N1CCOCC1 | inactive: -11.2% | 
57 | CN1C(=O)/C(=C2\SC(=S)N(C(CCC(=O)O)C(=O)O)C2=O)c2ccccc21 (stereo unspecified) |  | active: 28.2 µM
58 | COc1cc(C(c2nnnn2C2CCCC2)N2CCc3ccccc3C2)ccc1O (stereo unspecified) |  | inconclusive: 31.6 µM [inhibitor, single point]
59 | COc1cccc2c(=S)c(CCC(C)=O)c(C)[nH]c12 |  | inconclusive: 31.6 µM [inhibitor, partial curve]
60 | Cc1ccc2nc(-c3cccc(N)c3)oc2c1 |  | inconclusive: 22.4 µM [inhibitor, partial curve]
61 | O=c1ccc2ccc(OCc3nnc(-c4ccccc4Br)o3)cc2o1 |  | inconclusive: 12.6 µM [inhibitor, partial curve]
62 | C=Cc1ccc(C=C)cc1 | inactive: -4.22% | 
63 | CCOC(=O)c1c(NC(=O)c2cccs2)sc2c1CCN(C(=O)OCC)C2 |  | inconclusive: 28.2 µM [inhibitor, partial curve]
64 | CC1(C)CC(NC(=O)c2ccc3c(c2)OCO3)CC(C)(C)N1 | inactive: -27.8% | 
65 | Cc1ccc(C(=O)NC2CCCCCC2)o1 |  | active: 25.1 µM
66 | COc1ccc(S(=O)(=O)NC(C)C(=O)Nc2ccccc2F)cc1 (stereo unspecified) | inactive: -7.13% | 
67 | Cc1ccc(CNC(=O)C2=CCN(S(=O)(=O)c3ccc(C)cc3)CC2)cc1 |  | inconclusive: 20 µM [inhibitor, single point]
68 | Cc1ccc(-c2cc(-c3ccc(F)cc3)c(C#N)c(N)n2)o1 |  | inconclusive: 5.01 µM [inhibitor, partial curve]
69 | COC(=O)c1[nH]c(=O)c2ccccc2c1O | inactive: -26% | 
70 | COc1ccc(OC)c(/C=N/Nc2nncn2/N=C/c2cc(OC)ccc2OC)c1 | inactive: -9.74% | 
71 | COc1ccc(Nc2ncc(C(=O)N3CCN(c4ccc(F)cc4)CC3)c3ccccc23)cc1 |  | inconclusive: 35.5 µM [inhibitor, single point]
